Reference: PMC4336329 (PLoS ONE, 2015)
In all, about 310,000 compounds went through this assay and about 14,000 (4.5%) showed an effect of 50% or more. The effect is printed as a negative number. The list shows a part of the results.

target: human ether-à-go-go-related gene (hERG) potassium channel (human, UniProt Q12809); assay: primary screen, population patch clamp on CHO cells stably expressing hERG
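Note: peak tail current of the secondary pulse compared with the same well before compound.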

Sequence of human ether-à-go-go-related gene (hERG) potassium channel (Q12809 whole entry, looked up): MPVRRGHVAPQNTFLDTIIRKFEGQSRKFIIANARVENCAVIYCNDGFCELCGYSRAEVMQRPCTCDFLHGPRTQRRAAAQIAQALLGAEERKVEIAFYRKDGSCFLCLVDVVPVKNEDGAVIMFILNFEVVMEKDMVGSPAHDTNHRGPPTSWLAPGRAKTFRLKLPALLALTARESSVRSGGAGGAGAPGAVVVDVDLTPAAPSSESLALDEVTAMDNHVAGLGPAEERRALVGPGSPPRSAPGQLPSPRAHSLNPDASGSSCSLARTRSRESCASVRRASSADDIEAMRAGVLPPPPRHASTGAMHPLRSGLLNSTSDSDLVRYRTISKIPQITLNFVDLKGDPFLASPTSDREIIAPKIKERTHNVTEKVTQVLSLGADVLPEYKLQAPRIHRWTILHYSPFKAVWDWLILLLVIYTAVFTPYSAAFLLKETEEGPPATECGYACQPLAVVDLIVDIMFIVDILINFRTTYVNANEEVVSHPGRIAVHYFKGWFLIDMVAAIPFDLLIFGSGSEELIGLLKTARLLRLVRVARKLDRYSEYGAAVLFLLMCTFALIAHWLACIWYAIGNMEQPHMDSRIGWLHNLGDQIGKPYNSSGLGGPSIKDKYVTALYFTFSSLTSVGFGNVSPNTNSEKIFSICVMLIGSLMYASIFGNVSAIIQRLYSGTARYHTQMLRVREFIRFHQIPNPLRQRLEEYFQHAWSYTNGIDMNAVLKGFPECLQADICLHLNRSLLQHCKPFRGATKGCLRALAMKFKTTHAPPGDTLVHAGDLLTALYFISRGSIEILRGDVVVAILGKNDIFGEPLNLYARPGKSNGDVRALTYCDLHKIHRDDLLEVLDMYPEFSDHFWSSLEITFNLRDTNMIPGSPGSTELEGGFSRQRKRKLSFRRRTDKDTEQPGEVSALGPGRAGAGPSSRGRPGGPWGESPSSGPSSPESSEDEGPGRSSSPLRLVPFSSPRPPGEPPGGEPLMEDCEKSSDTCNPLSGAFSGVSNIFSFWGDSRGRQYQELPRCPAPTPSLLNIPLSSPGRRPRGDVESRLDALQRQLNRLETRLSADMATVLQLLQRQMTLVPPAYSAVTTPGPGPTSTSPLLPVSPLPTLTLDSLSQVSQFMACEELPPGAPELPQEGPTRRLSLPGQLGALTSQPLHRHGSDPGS

SMILES	hERG current change (%, negative = inhibition) at 10uM
CCCN(C(=O)c1cn(-c2ccccc2)nc1-c1ccc(OC)cc1)C1CCS(=O)(=O)C1 (stereo not shown)	-22.8%
CCCCCC(=O)Nc1ccc(C(=O)CN2C(=O)NC3(CCCCCC3)C2=O)cc1	5.54%
Cc1cc(C)cc(Oc2ccccc2C=O)c1	8.9%
CC(C)Cc1nnc(NC(=O)CCC(=O)N2CCC3(CC2)OCCO3)s1	12.3%
CCCCNC(=O)Nc1ccnn1C1CCCCC1	10.7%
O=S(=O)(NC1CCCC1)c1cccc(-c2nnc(-c3ccccc3)o2)c1	4.25%
CCN(CC(=O)Nc1c(F)cccc1F)C(=O)c1cc(S(=O)(=O)NCc2ccccc2)ccc1C	-24.9%
CCCCC(=O)NC1(C(F)(F)F)C(=O)N(CC(C)C)C2=C1C(=O)CC(C)(C)C2 (stereo not shown)	5.13%
Nc1nnnn1CC(=O)N/N=C/c1ccc(-c2cccc(Cl)c2)o1	8.79%
Cc1cc(CN2C(=O)c3ccccc3C2=O)on1	14.8%
COC(=O)c1nc(NC(=O)C(C)(C)C)n[nH]1	-0.145%
COc1cc(/C=N/NC(=O)c2ccc(F)cc2)ccc1OC(=O)c1ccco1	-14.1%
COc1cccc(N2CCN(Cc3nc(N)nc(Nc4ccccc4OC)n3)CC2)c1	-25.6%
CCn1c2ccccc2c2cc(NC(=O)CSc3nnc(-c4ccc(OC)cc4)n3N)ccc21	-10.9%
C=CCSCC1Nc2cc(Cl)c(S(N)(=O)=O)cc2S(=O)(=O)N1 (stereo not shown)	8.41%
Cc1ccc(OCCn2cc(C(=S)N3CCCC3)c3ccccc32)cc1C	10.3%
CCCc1[nH]c2ccc(C#N)cc2c1CCC	29.1%
O=c1c2cc(NC(=S)NC3CC3)ccc2nc2n1CCCCC2	0.786%
O=C(c1cc2ccccc2oc1=O)N(Cc1ccc(F)cc1)C1CCS(=O)(=O)C1 (stereo not shown)	-26.2%
CCOc1cc(C(=O)OCC(=O)Nc2ccc(Cl)cn2)ccc1OCC(=O)N1CCOCC1	-13.9%
COc1ccc(CC(=O)N/N=C(\C)CC(=O)Nc2ccc(N(C)C)cc2)cc1	12.4%
OCc1nc2ccccc2n1CCCCOc1ccccc1	0.828%

SMILES	hERG current change (%, negative = inhibition) at 10uM
COc1ccccc1NC(=O)CSCc1nc2ccccc2[nH]1	-14.2%
C=CCn1c(O)c(C(C)=NCCN2CCCCC2)c(=O)[nH]c1=O	-1.71%
CC(=O)c1cccc(NC(=O)c2cccc(S(=O)(=O)N3CCOCC3)c2)c1	-16.5%
Cc1c(C(=O)NCC2CCCO2)oc2c(Cl)cccc12 (stereo not shown)	6.69%
Cc1ccc(/C=C2/Sc3ccc(C(=O)NCc4ccccn4)cc3NC2=O)cc1	9.04%
CCOCCCNC(=O)N1CCOCC1	-6.23%
Cc1ccc(CCN2CC(C(=O)O)CC2=O)cc1 (stereo not shown)	-0.636%
COc1cccc(-c2cc(C(=O)Nc3cnn(Cc4ccccc4C)c3)no2)c1	1.73%
CC(OC(=O)c1ccc([N+](=O)[O-])o1)C(=O)NC1CCCCC1C (stereo not shown)	-1.63%
CCC(C)NC(=O)COC(=O)Cc1sc(N)nc1-c1ccc(C)cc1 (stereo not shown)	5.22%
Cc1ccc(NC(=O)C2CCN(C(=O)c3ccc(Cl)cc3)CC2)nc1	-23%
O=C(Oc1cccc(-n2cnnn2)c1)c1ccccc1Cl	6.88%
CC(C)(C#CC(=O)[O-])OOC(c1ccccc1)(c1ccccc1)c1ccccc1.[Na+]	12.8%
COCCCN=C1NN=C(c2cc(C)n(-c3ccccc3)c2C)CS1	4.75%
CCOP(=O)(OCC)C(NC(=O)/C=C/c1ccc(OC)cc1)c1ccccc1 (stereo not shown)	18.7%
Fc1ccccc1Cn1nnc2c(-n3ccnc3)ncnc21	6.47%
O=C(Nc1nnc(-c2ccc(F)cc2)o1)c1ccc(S(=O)(=O)N2CCOCC2)cc1	-6.82%
O=C(c1cc2ccccc2s1)N1CCN(c2ccccn2)CC1	-11.5%
COc1cc(S(=O)(=O)N2CCN(C)CC2)ccc1Cl	16.4%
COc1cc([N+](=O)[O-])cc(/C=N/NC(=O)C(O)(c2ccccc2)c2ccccc2)c1O	5.68%
Cc1ccc([N+](=O)[O-])cc1NC(=S)NCCc1ccccc1	-5.31%
